Among the data in publication PMC13083723 (Patterns, 2026) are result_ITMP values, retold here.

The whole screen tested about 5,400 compounds, of which about 190 (3.5%) showed an effect of 50% or more. Some of the results follow.

The test system of this experiment is Vero-E6. Put plainly: primary screen, phospholipidosis by LipidTOX staining; higher = more effect of the substance. The conditions noted are these: 10 µM. The method, boiled down: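 Drug-induced phospholipidosis detected with HCS LipidTOX Red reagent in Vero-E6 cells. Compounds tested at 10 μM, with amiodarone (10 μM) as positive control and DMSO (0.1 v/v %) as vehicle.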
On to `CC(C)(N)CC12CC3CC(CC(C3)C1)C2`, for which the result_ITMP is 35.1%.
Regarding `CCCCc1oc2ccc(NS(C)(=O)=O)cc2c1C(=O)c1ccc(OCCCN(CCCC)CCCC)cc1`, the result_ITMP is recorded as 74.9%.
Take `CCC1(c2ccccc2)C(=O)NCNC1=O`: the result_ITMP is on record as -1.24%.
As for `N=C(Nc1ccccc1)c1cccs1`, the result_ITMP is given as -5.89%.
The same measure for `COc1cc(/C=C/C(=O)[O-])ccc1O`: -1.05%.
`Cc1cc2c(cc1C(F)(F)F)N(C(=O)Nc1ccc(Oc3cccnc3C)nc1)CC2`: the result_ITMP was -1.15%.
The same measure for `CC1CCN(CC[C@H]2CCCN2S(=O)(=O)c2cccc(O)c2)CC1`: 0.47%; for `COc1cn(-c2ccc(-n3cccn3)cc2F)nc(-c2ccnn2-c2ccccc2)c1=O`: -1.11%; for `C[C@@H]1N=C(N)NC(N(C)C)=N1`: -2.11%.
Regarding `Nc1ncnc2c1ncn2[C@@H]1O[C@H](CO)[C@@H](O)[C@@H]1O`, the result_ITMP is reported as -0.52%.
To `CC12CCC(=O)C=C1CCC1C2[C@@H](O)CC2(C)C1CC[C@]2(O)C(=O)COP(=O)(O)O` (stereo partly shown) belongs -4.38%; to `CC(C)NC(=O)N1CC[C@H](NC2=Nc3cc(F)ccc3N(CC(F)F)c3ccc(Cl)cc32)C1`, 2.43%; to `COCc1c[n+]([O-])c(C)cn1`, 2.97%.
To `O=c1[n-]c(=O)n(Cl)c(=O)n1Cl` belongs -11.2%; to `CCN1CCN(C(=O)NC(C(=O)N[C@@H]2C(=O)N3[C@@H]2SC(C)(C)[C@@H]3C(=O)[O-])c2ccccc2)C(=O)C1=O` (stereo partly shown), -2.05%.
The same measure for `NC(=O)c1cc([N+](=O)[O-])cc([N+](=O)[O-])c1`: -2.95%.
With `CC[C@H](C)[C@H](N)C(=O)O`, the result_ITMP is reported as -0.55%.
Regarding `CC(=O)SC[C@@H](C)C(=O)N1CCC[C@H]1C(=O)N[C@@H](Cc1ccccc1)C(=O)O`, the result_ITMP was -0.38%.
For the compound `NC[C@@H]1O[C@H](C23CC4CC(CC(C4)C2)C3)Cc2c1ccc(O)c2O`, the result_ITMP is on record as -0.25%.
To `O=c1[nH]cnc2nc[nH]c12` belongs -2.17%.
The same measure for `CCOc1nc2cccc(C(=O)O)c2n1Cc1ccc(-c2ccccc2-c2nnn[nH]2)cc1`: 4.44%; for `O=C(O)[C@@H](S)[C@@H](S)C(=O)O`: -5.93%; for `C[C@@](Cc1ccc(O)c(O)c1)(NN)C(=O)O`: -4.37%.
As to `C=CC(=O)Nc1cccc(Oc2nc(Nc3ccc(N4CCN(C)CC4)cc3)ncc2Cl)c1`, the result_ITMP is 70.5%.
The same measure for `O=C(NCCCN1CCOCC1)c1cnn2c(-c3ccccc3)cc(-c3ccccc3)nc12`: -1.74%; for `Cn1c(=O)c2c(ncn2CC2OCCO2)n(C)c1=O`: -5.28%; for `Oc1cc2c(cc1O)C(c1ccccc1)CNCC2` (stereo not shown): -1.04%.
To `CN(C)C/C=C/C(=O)Nc1cccc(C(=O)Nc2cccc(Nc3ncc(Cl)c(-c4c[nH]c5ccccc45)n3)c2)c1` belongs 1.73%; to `CC(C)NC[C@@H](C(=O)N1CCN(c2ncnc3c2[C@H](C)C[C@H]3O)CC1)c1ccc(Cl)cc1`, 3.29%; to `Cc1ccc([C@@H]2O[C@H](CO)[C@@H](O)[C@H](O)[C@H]2O)cc1Cc1ccc(-c2ccc(F)cc2)s1`, 2.27%.
To `CC(C)(C)c1cc(C(C)(C)C)c(NC(=O)c2c[nH]c3ccccc3c2=O)cc1O` belongs -5.08%; to `CC(=O)N(CC(O)CO)c1c(I)c(C(=O)NCCO)c(I)c(C(=O)NCC(O)CO)c1I` (stereo not shown), -7.35%; to `CN1CCN(CC(=O)N2c3ccccc3C(=O)Nc3cccnc32)CC1`, -4.07%.
Consider `Cc1cc(=O)n(-c2ccccc2)[nH]1`, for which the result_ITMP is reported as -1.09%.
The same measure for `Cc1cc(/C=c2/sc3nc4ccccc4n3c2=O)c(C)n1-c1ccccc1`: -4.34%.
To `O=C([O-])C(O)C(O)C(O)C(O)CO` (stereo not shown) belongs -6.08%; to `CC1(C)[C@H]2CC[C@]1(C)[C@@H](O)[C@H]2O`, -7.7%.
The same measure for `CCCCCCCCCCCCOS(=O)(=O)[O-]`: -3.59%.
With `CCCCCCCCCCCCCCCC[N+](C)(C)Cc1ccccc1`, the result_ITMP was -3.16%.
Turning to `CCOC(=O)[C@H]1O[C@@H]1C(=O)N[C@@H](CC(C)C)C(=O)NCCC(C)C`, the result_ITMP is -5.05%.
To `Nc1ncnc2[nH]nc(Nc3ccc(F)cc3)c12` belongs -1.75%; to `Cn1cc[nH]c1=S`, -2.34%; to `CC(C)C[C@H](NC(=O)[C@@H](COC(C)(C)C)NC(=O)[C@H](Cc1ccc(O)cc1)NC(=O)[C@H](CO)NC(=O)[C@H](Cc1c[nH]c2ccccc12)NC(=O)[C@H](Cc1cnc[nH]1)NC(=O)[C@@H]1CCC(=O)N1)C(=O)N[C@@H](CCCN=C(N)N)C(=O)N1CCC[C@H]1C(=O)NNC(N)=O`, -2.88%.
The same measure for `COc1ccccc1OC(=O)c1ccccc1OC(C)=O`: 1.91%; for `O=C(O)CC(S)C(=O)O` (stereo not shown): -4.92%; for `CO[C@@H]1[C@@H](OC(N)=O)[C@@H](O)[C@H](Oc2ccc3c([O-])c(NC(=O)c4ccc(O)c(CC=C(C)C)c4)c(=O)oc3c2C)OC1(C)C`: -3.28%.
Take `CCOC(=O)C(=O)Nc1cccc(OC)c1C(N)=O`: the result_ITMP was -3.58%.
In the case of `COc1ccc2[nH]c(SCc3ncc(C)c(OC)c3C)nc2c1`, the result_ITMP is -4.05%.
The same measure for `Oc1c(CN2CCCC2)cc(COCc2ccccc2)c2cccnc12`: -1.35%; for `NCCCCCC(=O)O`: -1.72%.
As for `CC(C)CCNC(=O)[C@H](CC(C)C)NC(=O)[C@H]1O[C@@H]1C(=O)O`, the result_ITMP is -2.18%.
The same measure for `O=c1[nH]c2ccccc2c(=O)n1CCCN1CCN(c2ccccc2)CC1`: -3.31%; for `c1ccc2c(CCNc3ccc(Nc4ccncc4)cc3)c[nH]c2c1`: 74%.
On to `CCCCCCCCCCCCCCCCCCCCCC(=O)O`, for which the result_ITMP is on record as -4.46%.
The same measure for `COc1ccc2c(Oc3ccc(NC(=O)c4c(C)n(CC(C)(C)O)n(-c5ccccc5)c4=O)nc3)ccnc2c1`: -2.93%; for `COc1c(C)cnc(Cn2cnc3c(Cl)nc(N)nc32)c1C`: -3.87%; for `Cc1ccc2c(c1)C(=O)[C@]1(O)CCN(c3ccccc3)C1=N2`: -2.25%.
Take `CN(C)C(=N)NC(=N)N`: the result_ITMP is recorded as 2.14%.
To `Cc1nc2c([nH]1)-c1ccccc1N(C(=O)c1ccc(NC(=O)c3ccccc3-c3ccccc3)cc1)CC2` belongs 15.4%; to `CC(C)Oc1ccc(-c2cnc3c(-c4ccnc5ccccc45)cnn3c2)cc1`, -4.25%.
The same measure for `CC1=C(C)C(=O)C(C(CCCCCC(=O)O)c2ccccc2)=C(C)C1=O` (stereo not shown): -2.21%.
As for `CCCCCCCCCCCCCCCC(=O)OC[C@H](O)[C@H]1OC(=O)C(O)=C1O`, the result_ITMP is listed as 1.78%.
The same measure for `NC(=O)C[C@H](N)C(=O)O`: -8.16%.
To `C[C@@]1(CO)[C@H](O)CC[C@@]2(C)[C@H]1CC[C@H]1C[C@@H]3C[C@@]12CC[C@]3(O)CO` belongs 0.12%; to `C[C@@H]1CC[C@H]2C(C)(C)[C@H]3C[C@@]12CC[C@@]3(C)O`, 4.78%.
With `C#Cc1cncc([C@@H]2CCCN2C)c1`, the result_ITMP is -2.09%.
The same measure for `COC1/C=C\OC2(C)Oc3c(C)c(O)c4c(O)c(cc([O-])c4c3C2=O)NC(=O)/C(C)=C\C=C/C(C)C(O)C(C)C(O)C(C)C(OC(C)=O)C1C` (stereo not shown): -0.32%; for `N#C/C(=C\c1ccc(O)c(O)c1)C(=O)NCCCCc1ccccc1`: 3.86%; for `CC(NC(C)(C)C)C(=O)c1cccc(Cl)c1` (stereo not shown): 4.52%.
For `Cc1csc(-c2nnc(Nc3ccc(Oc4ncccc4-c4ccnc(N)n4)cc3)c3ccccc23)c1`, the result_ITMP was found to be 24.6%.
The same measure for `Nc1nc2c(ncn2COC(CO)CO)c(=O)[nH]1`: 1.51%; for `Nc1ccn([C@H]2C[C@H](O)[C@@H](CO)O2)c(=O)n1`: -1.56%.
The same measure for `O=C(O)CC(=O)C(=O)O`: -7.37%.
To `COC(=O)[C@H](CC(C)C)NC(=O)[C@H](N)CC(C)C` belongs -1.49%; to `CCN(CC)c1ccc(/C=N/NC(=O)c2ccc(O)cc2)cc1`, -5.55%.
For the compound `Cc1ncc(CO)c(C=O)c1O`, the result_ITMP is recorded as -2.29%.
To `CC(C)c1cccc2c(-c3ccccc3)cc(-c3ccc(-c4ccc(C(=O)O)cc4)[nH]3)nc12` belongs -2.63%; to `CO[C@H]1/C=C/O[C@@]2(C)Oc3c(C)c(O)c4c(O)c(c5c(nc6cc(C)ccn65)c4c3C2=O)NC(=O)/C(C)=C\C=C\[C@H](C)[C@H](O)[C@@H](C)[C@@H](O)[C@@H](C)[C@H](OC(C)=O)[C@@H]1C`, -3.34%.
To `CCNCCS(=O)(=O)NC[C@@]1(c2ccccc2)SC(NC(=O)C(C)(C)C)=NN1C(=O)C(C)(C)C` belongs -1.01%; to `CN1CCC2=C(C1)c1ccccc1Cc1ccccc12`, 52.7%; to `O=C1[C@H]2CCCC[C@H]2C(=O)N1CCCCN1CCN(c2nsc3ccccc23)CC1`, 14.6%.
To `Cc1cnc(Nc2ccc(OCCN3CCCC3)cc2)nc1Nc1cccc(S(=O)(=O)NC(C)(C)C)c1` belongs 122%; to `c1ccc(Cn2c(N3CCNCC3)nc3ccccc32)cc1`, 51.9%; to `Cn1ncnc1[C@H]1c2n[nH]c(=O)c3cc(F)cc(c23)N[C@@H]1c1ccc(F)cc1`, -5.75%.
With `C=CCN(C)CCCCCCOc1ccc(C(=O)c2ccc(Br)cc2)c(F)c1`, the result_ITMP is 92.9%.
For `COc1ccc(Cl)c(Nc2nc3ccccc3nc2NS(=O)(=O)c2cccc(NC(=O)C(C)(C)N)c2)c1`, the result_ITMP is listed as -0.79%.
The same measure for `CCCNC(=O)NS(=O)(=O)c1ccc(Cl)cc1`: -1.26%; for `CCN(CC)C(C)CN1c2ccccc2Sc2ccccc21` (stereo not shown): 63.9%.
The same measure for `CC(=O)O[C@]1(C(C)=O)CC[C@H]2[C@@H]3C=C(Cl)C4=CC(=O)CC[C@]4(C)[C@H]3CC[C@@]21C`: -1.88%; for `CN1CCN(CCc2ccc(Cl)c(Cl)c2)CC1`: 18.2%.
`CCCCCCCCCCC(=O)O[C@H]1CC[C@H]2[C@@H]3CCC4=CC(=O)CC[C@]4(C)[C@H]3CC[C@]12C`: the result_ITMP is recorded as 0.88%.
